Reference: the supplement of paper PMC8728848
Some of the results follow.

Columns and labels:
Experiment in all cases: glycan array binding signal (z-score within array); higher = stronger binding
Conditions in all cases: glycan notation: IUPAC condensed, linker removed
[1] = molecular target: Fuc(a1-2)Gal
Outline: (§1)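 Columns mapping to the same glycan were averaged after glycan names were converted to IUPAC-condensed notation. The data come from 3228 arrays in the Consortium for Functional Glycomics database, limited to those with an available protein sequence. Binding is reported as a within-array Z-score averaged across arrays of one protein sequence and across linkers.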

[2] = molecular target: Fuc(a1-2)Gal(b1-3)GalNAc
Outline: as §1

[3] = molecular target: Fuc(a1-2)Gal(b1-3)GalNAc(b1-3)Gal
Outline: as §1

[4] = molecular target: Fuc(a1-2)Gal(b1-3)GalNAc(b1-3)Gal(a1-4)Gal(b1-4)Glc
Outline: as §1

[5] = molecular target: Fuc(a1-2)Gal(b1-3)GalNAc(b1-4)[Neu5Ac(a2-3)]Gal(b1-4)Glc
Outline: as §1

[6] = molecular target: Fuc(a1-2)Gal(b1-3)GlcNAc
Outline: as §1

[7] = molecular target: Fuc(a1-2)Gal(b1-3)[Fuc(a1-4)]GlcNAc
Outline: as §1

[8] = molecular target: Fuc(a1-2)Gal(b1-4)Glc
Outline: as §1

[9] = molecular target: Fuc(a1-2)Gal(b1-4)GlcNAc
Outline: as §1

[10] = molecular target: Fuc(a1-2)Gal(b1-4)GlcNAc(b1-3)Gal(b1-4)GlcNAc
Outline: as §1

[11] = molecular target: Fuc(a1-2)Gal(b1-4)GlcNAc(b1-3)Gal(b1-4)GlcNAc(b1-3)Gal(b1-4)GlcNAc
Outline: as §1

[12] = molecular target: Fuc(a1-2)Gal(b1-4)[Fuc(a1-3)]GlcNAc
Outline: as §1

[13] = molecular target: Fuc(a1-2)GlcNAc
Outline: as §1

[14] = molecular target: Fuc(a1-2)[Gal(a1-3)]Gal
Outline: as §1

[15] = molecular target: Fuc(a1-2)[Gal(a1-3)]Gal(b1-4)GlcNAc
Outline: as §1

[16] = molecular target: Fuc(a1-2)[Gal(a1-4)]Gal(b1-4)GlcNAc
Outline: as §1

[17] = molecular target: Fuc(a1-2)[GalNAc(a1-3)]Gal
Outline: as §1

[18] = molecular target: Fuc(a1-2)[GalNAc(a1-3)]Gal(b1-4)GlcNAc
Outline: as §1

[19] = molecular target: Fuc(a1-2)[GalNAc(a1-4)]Gal(b1-4)GlcNAc
Outline: as §1

[20] = molecular target: Fuc(a1-2)[GalNAc(b1-3)]Gal
Outline: as §1

[21] = molecular target: Fuc(a1-3)GlcNAc
Outline: as §1

[22] = molecular target: Fuc(a1-3)[Gal(b1-4)]GlcNAc
Outline: as §1

[23] = molecular target: Fuc(a1-3)[Gal(b1-4)]GlcNAc(b1-3)Gal(b1-4)[Fuc(a1-3)]GlcNAc
Outline: as §1

[24] = molecular target: Fuc(a1-3)[Gal(b1-4)]GlcNAc(b1-3)Gal(b1-4)[Fuc(a1-3)]GlcNAc(b1-3)Gal(b1-4)[Fuc(a1-3)]GlcNAc
Outline: as §1

[25] = molecular target: Fuc(a1-3)[Gal3S(b1-4)]GlcNAc
Outline: as §1

[26] = molecular target: Fuc(b1-3)GlcNAc
Outline: as §1

[27] = molecular target: Gal(a1-2)Gal
Outline: as §1

[28] = molecular target: Gal(a1-3)Gal
Outline: as §1

[29] = molecular target: Gal(a1-3)Gal(b1-4)Glc
Outline: as §1

[30] = molecular target: Gal(a1-3)Gal(b1-4)GlcNAc
Outline: as §1

[31] = molecular target: Gal(a1-3)Gal(b1-4)[Fuc(a1-3)]GlcNAc
Outline: as §1

[32] = molecular target: Gal(a1-3)GalNAc
Outline: as §1

[33] = molecular target: Gal(a1-3)[Gal(a1-4)]Gal(b1-4)GlcNAc
Outline: as §1

[34] = molecular target: Gal(a1-4)Gal(b1-4)Glc
Outline: as §1

[35] = molecular target: Gal(a1-4)Gal(b1-4)GlcNAc
Outline: as §1

[36] = molecular target: Gal(a1-4)GlcNAc
Outline: as §1

[37] = molecular target: Gal(a1-6)Glc
Outline: as §1

[38] = molecular target: Gal(b1-2)Gal
Outline: as §1

[39] = molecular target: Gal(b1-3)Gal
Outline: as §1

[40] = molecular target: Gal(b1-3)GalNAc
Outline: as §1

[41] = molecular target: Gal(b1-3)GalNAc(b1-4)Gal(b1-4)Glc
Outline: as §1

[42] = molecular target: Gal(b1-3)GalNAc(b1-4)[Neu5Ac(a2-3)]Gal(b1-4)Glc
Outline: as §1

[43] = molecular target: Gal(b1-3)GlcNAc
Outline: as §1

[44] = molecular target: Gal(b1-3)GlcNAc(b1-3)Gal(b1-4)Glc
Outline: as §1

[45] = molecular target: Gal(b1-3)[Fuc(a1-4)]GlcNAc
Outline: as §1

B1: CGL3 (Coprinopsis cinerea) (protein)
chain: MGHHHHHHHHSGFHILRLESTVDLSEPLKDNGIIVFQSDKLDLEPSPNLGPTGIDNTNVNLINAKGDVLLHIGIRRRENAFVFNSIPYGESRGPEERIPLEGTFGDRRDPSITVFDHPDRYQIMIDYKTVYYYKKRLEGRCEKVSYKINEGQTPPFSDVLGVTVLYFANVMPRAN
glycan array binding signal (z-score) [1]: -0.172 | glycan array binding signal (z-score) [2]: -0.196 | glycan array binding signal (z-score) [3]: 0.101 | glycan array binding signal (z-score) [4]: 0.189 | glycan array binding signal (z-score) [5]: -0.167 | glycan array binding signal (z-score) [6]: -0.196 | glycan array binding signal (z-score) [7]: -0.209 | glycan array binding signal (z-score) [8]: -0.2 | glycan array binding signal (z-score) [9]: -0.206 | glycan array binding signal (z-score) [10]: -0.175 | glycan array binding signal (z-score) [11]: -0.205 | glycan array binding signal (z-score) [12]: -0.152 | glycan array binding signal (z-score) [13]: -0.199 | glycan array binding signal (z-score) [14]: -0.212 | glycan array binding signal (z-score) [15]: -0.2 | glycan array binding signal (z-score) [16]: -0.189 | glycan array binding signal (z-score) [17]: -0.207 | glycan array binding signal (z-score) [18]: -0.193 | glycan array binding signal (z-score) [19]: -0.216 | glycan array binding signal (z-score) [20]: -0.134 | glycan array binding signal (z-score) [21]: -0.176 | glycan array binding signal (z-score) [22]: -0.213 | glycan array binding signal (z-score) [23]: -0.138 | glycan array binding signal (z-score) [24]: -0.206 | glycan array binding signal (z-score) [25]: -0.19 | glycan array binding signal (z-score) [26]: -0.18 | glycan array binding signal (z-score) [27]: -0.194 | glycan array binding signal (z-score) [28]: -0.199 | glycan array binding signal (z-score) [29]: -0.206 | glycan array binding signal (z-score) [30]: -0.21 | glycan array binding signal (z-score) [31]: -0.216 | glycan array binding signal (z-score) [32]: -0.208 | glycan array binding signal (z-score) [33]: -0.217 | glycan array binding signal (z-score) [34]: 0.612 | glycan array binding signal (z-score) [35]: -0.049 | glycan array binding signal (z-score) [36]: -0.204 | glycan array binding signal (z-score) [37]: -0.147 | glycan array binding signal (z-score) [38]: -0.169 | glycan array binding signal (z-score) [39]: -0.151 | glycan array binding signal (z-score) [40]: -0.16 | glycan array binding signal (z-score) [41]: -0.1 | glycan array binding signal (z-score) [42]: -0.23 | glycan array binding signal (z-score) [43]: -0.179 | glycan array binding signal (z-score) [44]: 2.51 | glycan array binding signal (z-score) [45]: -0.173
